Measurements as given in PubChem BioAssay AID493208 (National Center for Advancing Translational Sciences (NCATS), 2011).
Screen size: about 44,000 compounds; about 340 (0.77%) were called active. About 5% were inconclusive and are not listed. Calls come from the whole dose curve; as a rule, active = well fitted inhibition curve with a large enough effect; inconclusive = small, poorly fitted or top-dose-only effect; inactive = flat fitted curve, though single readings scatter. Some of the results follow.

Experiment: Acumen qHTS Assay for Inhibitors of the mTORC1 Signaling Pathway in MEF (Tsc2-/-, p53-/-) Cells: Sytravon; note: nearly all actives have a fitted effect of over 50% in size;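 for activity change, negative = inhibition: plate controls were DMSO for no effect and rapamycin for full effect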
Conditions: phospho-rpS6 immunofluorescence/PI, 24 h; series mostly up to 38.3 µM; activity change, negative = inhibition: at the top concentration
How it was run: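 Tsc2-/-, p53-/- mouse embryonic fibroblasts (empty-vector line) exposed to compound 24 hrs at 37 C, fixed, immunostained for phospho-rpS6 and counterstained with propidium iodide. Acumen laser scanning gives % positive cells from Alexa 488/PI ratio, thresholded using 7.5 nM rapamycin; PI count gives viability.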
Potency is the fitted concentration of half-maximal effect.

Compound | activity change, negative = inhibition | Potency
COCCNC(=O)Cn1cc2c(n1)-c1c(oc(C(=O)N3CCCC3)c1C)CC2 | inactive: 0.0867% | 
NC(=O)Cn1c(=O)n(CCCCCC(=O)NCc2ccccc2Cl)c(=O)c2sccc21 | inactive: 5.19% | 
COc1ccc(C2C(=O)N(C3CCCCCC3)CC(=O)N2Cc2ccccc2)cc1 (stereo not drawn) | inactive: 6.27% | 
CC(CNC(=O)c1ccc(Nc2nc3ccccc3n3nnnc23)cc1)c1ccccc1 (stereo not drawn) | inactive: 2.95% | 
CCCCOC(=O)/C(C#N)=C/c1ccc(-c2ccc(Br)cc2)o1 | inactive: -4.73% | 
CCC(=O)N1CCN(c2nc3c(C)cccc3s2)CC1 | inactive: -3.21% | 
CCCn1c2ccccc2c2cnn(CC(=O)NC(C)CC)c(=O)c21 (stereo not drawn) | inactive: 0.821% | 
COc1ccc(OC(=O)CSc2nnc(-c3ccc(F)cc3)o2)cc1 | inactive: -0.726% | 
Cc1ccc([N+](=O)[O-])c(Oc2ncnc3c2oc2ccccc23)c1 | inactive: 0.796% | 
Cc1ccc(NC(=O)CCCN2C(=O)COc3ccc(C)cc32)c(C)c1 | inactive: 1.8% | 
CCc1cccc(C)c1NC(=O)c1nc2ccccc2nc1N1CCCCC1 | inactive: -8.45% | 
COc1ccc2c(Sc3ccccc3)c(C(=O)N3CCC(C)CC3)[nH]c2c1 | inactive: 2.9% | 
Cc1ccc(N2C(=O)CSC23C(=O)N(CC(=O)Nc2ccc(C)cc2C)c2ccccc23)cc1 (stereo not drawn) | inactive: -9.17% | 
CCc1ccc(C(=O)CSc2nc(-c3ccccc3)nc3c2CCCC3)cc1 | inactive: -9.81% | 
Cc1ccc(CNC(=O)CN2C(=O)CSc3ccc(S(=O)(=O)N4CCCC4)cc32)cc1 | inactive: -3.64% | 
COc1ccc2nc3sc(C(=O)N4CCN(c5ccc(F)cc5)CC4)cc3cc2c1 | inactive: 0.278% | 
Cc1ccc(C)c(N2CCN(S(=O)(=O)c3ccc4c(c3)CCCN4C(=O)C3CCC3)CC2)c1 | inactive: 0.762% | 
COc1ccc(CNS(=O)(=O)c2ccc(F)c(C(=O)Nc3c(C)cc(C)cc3C)c2)cc1 | inactive: 6.66% | 
CCOC(=O)c1cc(-c2ccc(OC)cc2)n(CCC(=O)Nc2cccc(C(C)=O)c2)c1C | inactive: -1.21% | 
Cc1cc2oc(C(=O)Nc3sc4c(c3C(=O)NCc3ccccc3)CCCC4)cc(=O)c2cc1C | inactive: -0.77% | 
CN(C)c1ccc(CNC(=O)CN2C(=O)CCn3nc(-c4cn(C)c5ccccc45)cc32)cc1 | inactive: -0.191% | 
COc1cccc(-c2nc3c(c(SCc4ccccc4Cl)n2)Cc2c(CO)cnc(C)c2O3)c1 | inactive: -2.8% | 
CCCN(CCC)C(=O)C1CCCN(c2ncnc3onc(-c4ccc(F)cc4)c23)C1 (stereo not drawn) | inactive: 0.198% | 
Cc1ccc(CSCCC(=O)N2CCN(c3cc(C)ccc3C)CC2)cc1 | inactive: 0% | 
CCC(C)NC(=O)CSc1nnc(-c2ccc(C)cc2)c(-c2ccc(C)cc2)n1 (stereo not drawn) | inactive: 8.16% | 

Compound | activity change, negative = inhibition | Potency
COCCCNC(=O)c1sc2nc(C)c(C(=O)Nc3ccc(C)cc3C)c(-c3ccc(Br)cc3)c2c1N | inactive: -5.56% | 
COc1ccc(-c2noc(CN(C(=O)Cc3ccc(C)cc3)C(C)C)n2)cc1 | inactive: 1.85% | 
COc1cccc(CNC(=O)C2CCN(C(=O)c3sccc3-n3cccc3)CC2)c1 | inactive: -0.135% | 
O=C(NCCCO)C(=O)Nc1c2c(nn1-c1ccccc1)CSC2 | inactive: -1.8% | 
CCC(CC)C(=O)NCc1nc2cccnc2n1Cc1ccc(F)cc1 | inactive: -7.87% | 
CCCN(CCC)C(=O)c1cn(CC)c2ccc(S(=O)(=O)N3CCCCC3)cc2c1=O | inactive: 1.12% | 
O=C(CN1C(=O)C2(SCC(=O)N2c2ccccc2)c2ccccc21)NCCc1ccccc1 (stereo not drawn) | inactive: -1.98% | 
Cc1cn2c(=O)cc(COC(=O)c3ccccc3F)nc2s1 | inactive: -10.6% | 
CCc1ccc(NC(=O)CSc2nc3c(sc4ccccc43)c(=O)n2CCN(CC)CC)cc1 | inactive: 0.457% | 
Cc1ccc(CNS(=O)(=O)c2cc3c(cc2C)N(C)CCO3)cc1 | inactive: -7.62% | 
COc1cc(C)ccc1OCCSc1nc2ccc(NC(=O)c3cccs3)cc2s1 | inactive: -4.58% | 
Cc1ccc(C(=O)Nc2ccccc2C(=O)OCc2cc(=O)n3nc(C4CC4)sc3n2)cc1 | inactive: 4.46% | 
Cc1ccc(S(=O)(=O)C(CNC(=O)COc2ccc(Cl)cc2)c2ccco2)cc1 (stereo not drawn) | inactive: 0.232% | 
Cc1ccc(CNC(=O)c2cccc(NC(=O)N3CCSc4ncccc43)c2)cc1 | inactive: 1.66% | 
CC(=O)Nc1cccc(NC(=O)CSc2nccn2Cc2ccco2)c1 | inactive: -7.5% | 
Cc1cc(C)cc(NC(=O)CCCc2nnc3n(CC(C)C)c(=O)c4sccc4n23)c1 | inactive: 0.377% | 
Cc1ccc(NC(=O)c2ccc3c(c2)NC(=O)c2ccccc2S3)cc1 | inactive: -8.57% | 
CCN(CC)CCCNC(=O)C(=O)Nc1ccc2nc3n(c(=O)c2c1)CCCCC3 | inactive: -7.9% | 
COc1ccc(/C=C/C(=O)Nc2ccc(Cl)cc2Cl)cc1 | inactive: -9.69% | 
Cc1ccc(Cn2ccnc2SCC(=O)Nc2ccc3c(c2)OCCO3)cc1 | inactive: -7.58% | 
Cc1ccc(NC(=O)Cn2cc(C(=O)c3ccco3)c3ccccc32)c(C)c1 | inactive: 2.8% | 
Cc1ccccc1CNC(=O)c1cc2cccc3c2n1CC(C)S3 (stereo not drawn) | inactive: 1.54% | 
O=C(Nc1cccc(Cl)c1)c1cc(S(=O)(=O)N2CCCc3ccccc32)ccc1F | inactive: -12.8% | 
CCOc1cc(C2CC(=O)Nc3c2c(=O)nc(SCc2cccc(Cl)c2)n3C)ccc1O (stereo not drawn) | inactive: 0% | 
COc1ccc(-c2cc(C(=O)Nc3sc4c(c3C(N)=O)CCC(C)C4)no2)cc1 (stereo not drawn) | inactive: 16.3% | 

Compound | activity change, negative = inhibition | Potency
CCOc1ccc(OCC)c(-n2cnnn2)c1 | inactive: -0.787% | 
Fc1ccccc1N1CCN(c2ncnc3onc(-c4cccc(Cl)c4)c23)CC1 | inactive: -6.37% | 
Cc1c(NC(=O)Nc2ccc(Cl)c(C(F)(F)F)c2)c(=O)n(-c2ccccc2)n1C | inactive: 4.73% | 
CC(=O)Nc1ccc(NC(=O)c2nc(SCc3ccccc3C)ncc2Cl)cc1 | inactive: -6.07% | 
COc1cccc(OCc2cc(=O)n3cc(C)sc3n2)c1 | inactive: -8.87% | 
CCCCNC(=O)c1cc(-c2ccc(Cl)c(Cl)c2)on1 | inactive: -13% | 
Cn1c(=O)c2c(-c3ccccc3Br)n(Cc3ccccc3)cc2n(C)c1=O | inactive: -1.3% | 
NS(=O)(=O)c1ccc(NC(=O)CN2CCN(c3ccc(F)cc3)CC2)cc1 | inactive: 6.65% | 
Cc1cccn2c(=O)cc(COc3ccc(NC(=O)C(C)Oc4ccccc4)cc3)nc12 (stereo not drawn) | inactive: -0.348% | 
COc1ccc(-c2cc3c(=O)n(CC(=O)Nc4cc(C)ccc4C)ccn3n2)cc1 | inactive: 0% | 
COc1ccc(-n2c(SCC(=O)NC3CCCCC3)nc3c([nH]c4ccccc43)c2=O)cc1 | inactive: -4.56% | 
Cc1ccc(Cl)cc1-n1ncc2c(NCCC3=CCCCC3)ncnc21 | inactive: -20.5% | 
CCOc1ccc(NC(=O)CC2C(=O)N(c3cccc(C)c3)C(=O)N2CCC2=CCCCC2)cc1 (stereo not drawn) | inactive: 4.13% | 
CCOc1ccc(NC(=O)CCc2c(C)nc3c(c(C)nn3-c3ccccc3)c2C)cc1 | inactive: 1.48% | 
Cc1ccc(S(=O)(=O)n2nc(C)c(S(=O)(=O)N3CCCCC3)c2C)cc1 | inactive: -10.7% | 
CCc1ccc(CN(Cc2ccco2)C(=O)c2ccc(C)cc2)cc1 | inactive: 4.21% | 
CC(=O)Nc1ccccc1-c1nc2ccccc2n(C(C)C(=O)Nc2cccc(C)c2C)c1=O (stereo not drawn) | inactive: -0.917% | 
Cc1ccc(-n2c(=O)[nH]c3sc4c(c3c2=O)CCCC4)cc1 | inactive: 0% | 
O=S(=O)(c1ccc(Cl)cc1)c1nnn2c1nc(NCc1ccccc1)c1sccc12 | inactive: -10.7% | 
CC(=O)N(Cc1cccnc1)c1nc2cc(C)cc(C)c2s1 | inactive: -5% | 
O=C(Nc1ccccc1)N(Cc1cccs1)c1ccc(Cl)cc1 | inactive: 1.73% | 
COc1cc(OC)c(NC(=O)CN(C)S(=O)(=O)c2ccc3c(c2)CCCC(=O)N3)cc1Cl | inactive: -14.9% | 
CCc1ccc(C(=O)c2cn(CC(=O)Nc3cccc(C)c3C)c3nc(C)ccc3c2=O)cc1 | inactive: -18.4% | 
CCCCN(CC)C(=O)C1CCC(CNS(=O)(=O)c2cccc3nsnc23)CC1 (stereo not drawn) | inactive: 1.51% | 
COc1ccc(Cl)cc1NC(=O)CN1C(=O)CSc2ccc(S(=O)(=O)N3CCCC3)cc21 | inactive: -15.2% | 

Compound | activity change, negative = inhibition | Potency
COc1ccccc1C(=O)N(Cc1ccco1)Cc1ccccc1F | inactive: -4.88% | 
Cc1ccc(CNC(=O)c2cc(Sc3ccc(F)cc3F)nc3ccccc23)cc1 | inactive: 3.7% | 
Cc1cccc(NC(=O)CSc2nc(C)c(Cc3ccccc3)c(=O)[nH]2)c1C | inactive: 2.61% | 
CCC(C(=O)N(C)Cc1ccccc1)n1nc(C)c2sc3ccccc3c2c1=O (stereo not drawn) | inactive: -3.74% | 
COc1ccc(CCNC(=O)C2=C(C)C(=O)OC23CCCCC3)c(OC)c1 | inactive: 5.24% | 
COc1ccc(CNC(=O)CCc2c(C)nn(-c3ccc(N4CCOCC4)nn3)c2C)cc1 | inactive: -5.05% | 
CC(=O)N1CCCC1c1nc2ccccc2n1Cc1cc(C)ccc1C (stereo not drawn) | inactive: 1.55% | 
CCOC(=O)N1CCN(S(=O)(=O)N2CCCC(C(=O)NCc3ccccc3OC)C2)CC1 (stereo not drawn) | inactive: 3.89% | 
CCOC(=O)c1ccc(CN(Cc2ccc(F)cc2)S(=O)(=O)c2cc(C(=O)Nc3ccccc3CC)ccc2F)cc1 | inactive: -14.8% | 
COc1ccc(NC(=O)C2CCCN(S(=O)(=O)c3ccc4[nH]c(=O)ccc4c3)C2)cc1OC (stereo not drawn) | inactive: -3.73% | 
Cc1cccc(N2CCN(C(=O)CCCn3ncn4c(cc5occc54)c3=O)CC2)c1C | inactive: -10.2% | 
Cn1c(=O)n(C)c2cc(N3CCOCC3)c(NS(=O)(=O)c3ccc(Br)cc3)cc21 | inactive: 6.34% | 
CCOc1cc(CNCCSc2nnnn2C)cc(Cl)c1OCc1ccc(Cl)cc1 |  | active: 16.5 µM
O=C(NCC(c1cccnc1)N1CCc2ccccc2C1)C(=O)Nc1cccc(Cl)c1 (stereo not drawn) | inactive: 0.836% | 
COc1ccc(-c2cc(C(=O)NCCc3ccccc3)c3c(-c4ccccc4)[nH]nc3n2)cc1 | inactive: -9.98% | 
O=C(Cc1ccc(F)cc1)Nc1cccc(-c2nc3cccnc3s2)c1 | inactive: -8.05% | 
Cc1ccc(CCNS(=O)(=O)c2ccc3c(c2)CCN3C(=O)CCC(=O)O)cc1 | inactive: 2.79% | 
CCc1ccc(NC(=O)CCc2c(C)n(C)c3cc(-c4ccccc4C)nn3c2=O)cc1 | inactive: -2.17% | 
CC(=O)N1CCc2c(sc3c2c(=O)n(-c2ccccc2)c(=O)n3Cc2cccc(C(F)(F)F)c2)C1 | inactive: -2.83% | 
Cc1ccc(/C=C/c2nc3ccccc3n2S(=O)(=O)c2ccc(Br)cc2)cc1 | inactive: 0.547% | 
Cc1ccccc1C(=O)N1CCCCC1CCN1CCCCC1 (stereo not drawn) | inactive: -3.74% | 
COc1ccc(N2CCN(C(=O)CCc3c(C)nc4cc(-c5cccc(F)c5)nn4c3C)CC2)cc1 | inactive: -10.6% | 
COc1cccc(N=C2SC(C(=O)Nc3cccc(Cl)c3)CC(=O)N2C)c1 (stereo not drawn) | inactive: -13.7% | 
